We go through 56 sequences from the supplement of paper PMC11417369.

The list shows a part of the results.

This test deals with PfHDP1 homeodomain (GST-tagged). In words: gcPBM binding intensity (ln(normalized median fluorescence intensity)); higher = stronger DNA binding. A digest of the protocol: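 GST-tagged P. falciparum DNA-binding domains produced in E. coli were incubated for 1 h on an Agilent 4 × 180k array of primer-extended double-stranded 36-bp intergenic genomic probes with negative controls. Binding intensity is the highest Masliner-normalised natural-log median intensity across replicate spots of either probe orientation, with bound protein detected by Alexa488 anti-GST antibody at 488 nm.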
With “TGTACGAGTCGTAGAGTGCAGTCTGGAGAAACGTAC [GTGCAC_site9682]”, the “gcPBM binding intensity (ln)” value is 6.92.

In the case of “TTTAACAACTATTTCTGTACACATTTTTATATAATT [XGTACX_site4917]”, the “gcPBM binding intensity (ln)” value amounted to 7.1. For “TGAACCCACAAATCACGTACATATATATACACGTGT [XGTACX_site7739]” the value was 6.54.

As for “ATATACATTTTAAATTTTAATGTAACCCATGGGAGA [CACACA_negctrl_site588]”, the “gcPBM binding intensity (ln)” value amounted to 6.3.

As to “TATAATATATATGTATGTACGTATGTATGATTTTGT [XGTACX_site1164]”, the “gcPBM binding intensity (ln)” value came out at 6.69. The result for “AAGAAAAATTCTTCACGTACAAATAATTATATATAT [XGTACX_site7217]” reads 6.78; that for “TTTATAATTTATAGGCGGACAGGAAAATTTTATAAA [XGTACX_site6955]”, 6.95. Turning to “TTTTTTAAATATATATGTACATATATCTATATATAT [XGTACX_site3461]”, the “gcPBM binding intensity (ln)” value was 6.66. Take “GCAAGGTCCACACTGGTGCATTAAAAATAAAATATA [GTGCAC_site9956]”: the “gcPBM binding intensity (ln)” value came to 10.4. For “AAATTACAAATAAAATGTACTCATGTTTTTATTATA [XGTACX_site7223]” the value was 6.13. The result for “TTTTTAATTTTTTTCACACATATATAAATACAAATA [CACACA_site5530]” reads 6.5; that for “TACAGGAATATTTTTACACACTAAAAGTTATAAACT [CACACA_site6876]”, 6.13; that for “TTTTTCTTTTTTTGTTGTACATTTTGTAATATTTAC [XGTACX_site4102]”, 6.62. The result for “TGAACAGGTCATAATTTACACACTATATATTTTATT [CACACA_site8123]” reads 6.24. On to “TATTCCCCCCAACACACACACACACCGACATACCAC [CACACA_site8723]”, for which the “gcPBM binding intensity (ln)” value was 7.75.

Turning to “GAATTATATACTTATTGTACAAAAAAAAAAAAAAAA [XGTACX_site3193]”, the “gcPBM binding intensity (ln)” value is 6.12.

“ATAAACATGTATATATTAAAAAAAAAAAAAAAAAAT [CACACA_negctrl_site92]”: the “gcPBM binding intensity (ln)” value was determined as 6.42. For “TTATTTATATATTGCCCACACACATGTGATTATTTA [CACACA_site1715]” the value was 6.84. The result for “AATATTTTTTGTTTTACACACATATATAAATATATA [CACACA_site3602]” reads 6.69. For “AAGTTTAAAGGAATTACACAAACAAGCAAATATATA [CACACA_negctrl_site857]” the value was 6.92. “GTAAAATAAATAATATAAATAAAATGAAATGAAACA [TGCATGCA_negctrl_site519]”: the “gcPBM binding intensity (ln)” value was 6.75.

Regarding “ATTTTTTTTTTTTTTTTTAATTTATGTTGTTATTTT [CACACA_negctrl_site944]”, the “gcPBM binding intensity (ln)” value worked out at 6.25. Regarding “ATTATATAATAATAAAGTACTAATATTTTTAAAAGA [XGTACX_site235]”, the “gcPBM binding intensity (ln)” value is 6.44. The result for “GAACCGTTTTTATGTAGTACATATGTATATATATAT [XGTACX_site1577]” reads 8.69; that for “TAATATATTAAAAGAAGTACATTTCTGATTTAATAG [XGTACX_site6403]”, 5.9; that for “AGTAAATATATTATATGTACGTATCATAAAATATAT [XGTACX_site1567]”, 6.38. For “TTAATATTAAAATATAAACACACAAAATTCAATTAT [CACACA_site9262]”, the “gcPBM binding intensity (ln)” value stood at 6.49. The result for “TTTCTTATATTATATAAATATATAGATGTTAATGGT [CACACA_negctrl_site706]” reads 6.56; that for “AATATAATATAATGCACACATAAAAAAAAAAAAAAA [CACACA_site304]”, 10.9.

Regarding “TATTACAAAAATGTGTTATTATATAAACGTATAGAG [XGTACX_negctrl_site529]”, the “gcPBM binding intensity (ln)” value was 6.66.

Turning to “TTTATTCTCCGACACACACACATATATTTATTTATA [CACACA_site7377]”, the “gcPBM binding intensity (ln)” value was 7.09. The result for “AAATTAGAATTAGGAACACACATATTTATATTTATA [CACACA_site7450]” reads 6.27; that for “ATATATAAAAAATGTGGTACATTCATTTATTATACA [XGTACX_site3495]”, 5.95; that for “TAAATTATAATAAATACACACAAATTATAATTCTAT [CACACA_site3942]”, 6.65.

With “CATTTTATAAAAAGCACACATATAGTTATATGCACA [CACACA_site3691]”, the “gcPBM binding intensity (ln)” value is 8.73. The result for “TATATATATATACATTGTACATTATTGATTATAACA [XGTACX_site1678]” reads 9.09; that for “TTTGAATCCTTATATACACACATTATATAATATTAT [CACACA_site4472]”, 6.91.

Turning to “TTTTATATATTATATACACACATATATATATATATA [CACACA_site2999]”, the “gcPBM binding intensity (ln)” value worked out at 9.3. Regarding “TGTATGTTTATTTATCGTACATATATATATATATAT [XGTACX_site7315]”, the “gcPBM binding intensity (ln)” value was 9.33. The result for “AATAAATAAATATATACACACATATATCTGTACATA [CACACA_site9034]” reads 6.66.

In the case of “AGGAAAAAAAAAATGTGTACTTAAAAAAAAAAAATT [XGTACX_site1471]”, the “gcPBM binding intensity (ln)” value was 6.29.

On to “TTTTATCATATTTATTGTACACATAATATACATATC [XGTACX_site1145]”, for which the “gcPBM binding intensity (ln)” value was 7.35. The result for “CGTTTATATTTTAACTGTACTCAAAAAGTGCATTGT [XGTACX_site6072]” reads 7.29; that for “TGTTCATTTATTTACTTACACACTTTATATATGTGG [CACACA_site1410]”, 6.94. The result for “TAAAAGTAGATATATACACACATAAATATAGATGTA [CACACA_site6457]” reads 6.27; that for “ACATATTTCCAATAATGTACATACAAAATAAGAATG [XGTACX_site2659]”, 6.68. The result for “AATATTTTATATAAATGTACATTTATGAATAATATA [XGTACX_site8477]” reads 6.62; that for “GTGCTAAAAGTATATGCACACACATATATATGCACA [CACACA_site8472]”, 10.6. In the case of “ACAAAGTAAAATAATGCATGTAGGTATACATAATTA [TGCATGCA_site607]”, the “gcPBM binding intensity (ln)” value came out at 6.42. The result for “AGTTATGCATCTTAGGTGCTATGCCCAATTTATTTT [GTGCAC_site9977]” reads 7.24; that for “AACTTACTCTTTACAAGTACGTAAAAGAAATAGAAA [XGTACX_site1782]”, 6.13; that for “AAAAAAAAAAAAAATGCACACATATATTTCCATATA [CACACA_site8416]”, 9.18. As for “TTGCCTTAAAAAGGAACACACATGCTTTTTTTAGTT [CACACA_site938]”, the “gcPBM binding intensity (ln)” value was determined as 6.13.

Regarding “AATAAAGCAATAAATACACACATATATATATATATA [CACACA_site2934]”, the “gcPBM binding intensity (ln)” value was determined as 9.38. On to “TATATAAAAAATAGGTGGTCAACTTAAATATTTTAT [XGTACX_site4495]”, for which the “gcPBM binding intensity (ln)” value stood at 6.46. For “AAAAATGTGCACACGCGTACACACAAAAAAAGAAAA [XGTACX_site4097]” the value was 10.3.
